# Reference: a compilation of properties of binary mixtures (doi:10.1021/je060497d)
# The densities may have been worked out from excess volumes.
# Assay: xn = mol fraction of the nth substance listed
# Details: 101 kPa
structure (smiles),measurement,setting,value
COS(=O)(=O)[O-].Cn1cc[n+](C)c1 + CC(C)O,mass density,"293.15 K, x2 = 0",1330.9 kg/m3
same,mass density,"293.15 K, x2 = 0.0498",1317.5 kg/m3
same,mass density,"293.15 K, x2 = 0.0958",1304.8 kg/m3
same,mass density,"293.15 K, x2 = 0.3063",1239.9 kg/m3
same,mass density,"293.15 K, x2 = 0.4013",1204 kg/m3
same,mass density,"293.15 K, x2 = 0.4957",1162.4 kg/m3
same,mass density,"293.15 K, x2 = 0.7039",1045.8 kg/m3
same,mass density,"293.15 K, x2 = 0.8013",975.7 kg/m3
same,mass density,"298.15 K, x2 = 0",1327.2 kg/m3
same,mass density,"298.15 K, x2 = 0.0498",1314 kg/m3
same,mass density,"298.15 K, x2 = 0.0958",1301.4 kg/m3
same,mass density,"298.15 K, x2 = 0.2008",1270.7 kg/m3
same,mass density,"298.15 K, x2 = 0.3063",1236.3 kg/m3
same,mass density,"298.15 K, x2 = 0.4013",1200.3 kg/m3
same,mass density,"298.15 K, x2 = 0.4957",1159 kg/m3
same,mass density,"298.15 K, x2 = 0.5945",1108.5 kg/m3
same,mass density,"298.15 K, x2 = 0.7039",1042 kg/m3
same,mass density,"298.15 K, x2 = 0.8013",971.8 kg/m3
same,mass density,"298.15 K, x2 = 0.9019",884.8 kg/m3
same,mass density,"298.15 K, x2 = 0.951",835.9 kg/m3
same,mass density,"303.15 K, x2 = 0.0498",1310.4 kg/m3
same,mass density,"303.15 K, x2 = 0.2008",1267.4 kg/m3
same,mass density,"303.15 K, x2 = 0.3063",1232.7 kg/m3
same,mass density,"303.15 K, x2 = 0.4013",1196.7 kg/m3
same,mass density,"303.15 K, x2 = 0.4957",1155 kg/m3
same,mass density,"303.15 K, x2 = 0.5945",1104.7 kg/m3
same,mass density,"303.15 K, x2 = 0.7039",1038.3 kg/m3
same,mass density,"303.15 K, x2 = 0.8013",967.9 kg/m3
same,mass density,"303.15 K, x2 = 0.9019",880.8 kg/m3
same,mass density,"303.15 K, x2 = 0.951",831.6 kg/m3
CCCC[n+]1ccn(C)c1.F[P-](F)(F)(F)(F)F + CC(C)O,mass density,"293.15 K, x1 = 0.0008",786.3 kg/m3
same,mass density,"293.15 K, x2 = 0",1371.6 kg/m3
same,mass density,"293.15 K, x2 = 0.1055",1347.6 kg/m3
same,mass density,"293.15 K, x2 = 0.1825",1328.2 kg/m3
same,mass density,"293.15 K, x2 = 0.2864",1298.5 kg/m3
same,mass density,"298.15 K, x1 = 0.0008",782.3 kg/m3
same,mass density,"298.15 K, x1 = 0.0011",782.9 kg/m3
same,mass density,"298.15 K, x2 = 0",1367.3 kg/m3
same,mass density,"298.15 K, x2 = 0.0458",1357.2 kg/m3
same,mass density,"298.15 K, x2 = 0.1055",1343.4 kg/m3
same,mass density,"298.15 K, x2 = 0.1825",1324 kg/m3
same,mass density,"298.15 K, x2 = 0.2864",1294.3 kg/m3
same,mass density,"303.15 K, x1 = 0.0011",778.5 kg/m3
same,mass density,"303.15 K, x2 = 0",1363 kg/m3
same,mass density,"303.15 K, x2 = 0.0458",1353 kg/m3
same,mass density,"303.15 K, x2 = 0.1055",1339.3 kg/m3
same,mass density,"303.15 K, x2 = 0.1825",1319.8 kg/m3
same,mass density,"303.15 K, x2 = 0.2864",1290 kg/m3
CCC(C)=O + CCCC[n+]1ccn(C)c1.F[P-](F)(F)(F)(F)F,mass density,"303.15 K, x1 = 1",794.9 kg/m3
COS(=O)(=O)[O-].Cn1cc[n+](C)c1 + CCOC(C)=O,mass density,"293.15 K, x2 = 0",1330.9 kg/m3
same,mass density,"293.15 K, x2 = 0.0509",1317.7 kg/m3
same,mass density,"293.15 K, x2 = 0.0928",1308.3 kg/m3
same,mass density,"293.15 K, x2 = 0.1254",1301.1 kg/m3
same,mass density,"293.15 K, x2 = 0.1451",1296.6 kg/m3
same,mass density,"298.15 K, x2 = 0",1327.2 kg/m3
same,mass density,"298.15 K, x2 = 0.0509",1314.2 kg/m3
same,mass density,"298.15 K, x2 = 0.0706",1309.8 kg/m3
same,mass density,"298.15 K, x2 = 0.0928",1304.7 kg/m3
same,mass density,"298.15 K, x2 = 0.1254",1297.5 kg/m3
same,mass density,"298.15 K, x2 = 0.1451",1293 kg/m3
same,mass density,"303.15 K, x2 = 0",1323.7 kg/m3
same,mass density,"303.15 K, x2 = 0.0509",1310.7 kg/m3
same,mass density,"303.15 K, x2 = 0.0706",1306.2 kg/m3
same,mass density,"303.15 K, x2 = 0.0928",1301 kg/m3
same,mass density,"303.15 K, x2 = 0.1254",1293.8 kg/m3
CCCCCCCC[n+]1ccn(C)c1.F[P-](F)(F)(F)(F)F + CCOC(C)=O,mass density,"293.15 K, x2 = 0",1239.6 kg/m3
same,mass density,"293.15 K, x2 = 0.0967",1228.7 kg/m3
same,mass density,"293.15 K, x2 = 0.1981",1215.3 kg/m3
same,mass density,"293.15 K, x2 = 0.2967",1200.1 kg/m3
same,mass density,"293.15 K, x2 = 0.3954",1182.7 kg/m3
same,mass density,"293.15 K, x2 = 0.5056",1158.3 kg/m3
same,mass density,"293.15 K, x2 = 0.7059",1095.5 kg/m3
same,mass density,"293.15 K, x2 = 0.9036",987.8 kg/m3
same,mass density,"293.15 K, x2 = 0.9453",954.3 kg/m3
same,mass density,"298.15 K, x2 = 0",1235.7 kg/m3
same,mass density,"298.15 K, x2 = 0.0048",1235.2 kg/m3
same,mass density,"298.15 K, x2 = 0.0967",1224.8 kg/m3
same,mass density,"298.15 K, x2 = 0.1981",1211.3 kg/m3
same,mass density,"298.15 K, x2 = 0.2967",1196.2 kg/m3
same,mass density,"298.15 K, x2 = 0.3954",1178.5 kg/m3
same,mass density,"298.15 K, x2 = 0.5056",1153.9 kg/m3
same,mass density,"298.15 K, x2 = 0.6061",1126.1 kg/m3
same,mass density,"298.15 K, x2 = 0.7059",1090.8 kg/m3
same,mass density,"298.15 K, x2 = 0.8004",1047.2 kg/m3
same,mass density,"298.15 K, x2 = 0.9036",982.3 kg/m3
same,mass density,"303.15 K, x2 = 0",1231.9 kg/m3
same,mass density,"303.15 K, x2 = 0.0967",1220.9 kg/m3
same,mass density,"303.15 K, x2 = 0.1981",1207.4 kg/m3
same,mass density,"303.15 K, x2 = 0.2967",1192.2 kg/m3
same,mass density,"303.15 K, x2 = 0.3954",1174.4 kg/m3
same,mass density,"303.15 K, x2 = 0.5056",1149.6 kg/m3
same,mass density,"303.15 K, x2 = 0.7059",1086 kg/m3
same,mass density,"303.15 K, x2 = 0.8004",1042.2 kg/m3
same,mass density,"303.15 K, x2 = 0.9036",976.8 kg/m3
same,mass density,"303.15 K, x2 = 0.9453",942.9 kg/m3
